Source: PubChem BioAssay AID504706 (National Center for Advancing Translational Sciences (NCATS), 2011)
The whole screen tested about 320,000 compounds, of which about 200 (0.062%) were called active. The inconclusive results got no clear call from the source; some entries with a clear call stand among them for comparison. The call rests on the fitted dose curve; in most records, active means well fitted activation curve with a large enough effect; inconclusive means small, poorly fitted or top-dose-only effect; inactive means no such curve, though single readings can be large or run the other way. Potencies of inconclusive entries are left out as doubtful fits.
Potency means the concentration at half of the fitted maximal effect; tags describe the fitted curve by direction and shape.

Experiment: qHTS assay for re-activators of p53 using a Luc reporter; further: nearly all actives have a fitted effect of over 45% in size; on activity change, positive = activation: % of control where 0% means no effect
Settings: H1299 p53-A138V BP100-luciferase reporter, luminescence, 24 h; series mostly up to 92.2 µM; activity change, positive = activation: at the top concentration
In short: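 H1299 (p53-null), stable ts p53-A138V + BP100-Luc; 1000 cells/well, Opti-MEM/10% FBS; cpd 4 pt, 1:5; 24 h, 37 deg C, 5% CO2; detection reagent 10 min RT; luminescence.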
With `Cc1cc(NC(=O)CSc2ccc(-c3nc4cc(C)c(C)cc4[nH]3)cn2)no1` the Potency was inconclusive [activator, partial curve, poor fit].
With `COc1ccc(NC(=O)COC(=O)CCSc2ccccc2)cc1` the Potency was inconclusive [activator, partial curve, poor fit].
For `Cn1nnc2cc(C(=O)N3CCC(c4ccccc4)C3)ccc21` (stereo not given), the Potency was inconclusive [activator, full curve, poor fit].
For `c1ccc(-c2cc3nccc(-c4ccccn4)n3n2)cc1`, the Potency was inconclusive [activator, partial curve, poor fit].
In the case of `S=c1[nH]nc(-c2cccs2)n1/N=C/c1cn(-c2ccccc2)nc1-c1cccs1`, the “activity change, positive = activation” value is reported as inactive: 19.2%.
For `O=C(NCCc1ccccc1)c1ccco1`, the Potency was inconclusive [activator, partial curve, poor fit].
With `NS(=O)(=O)c1ccc(CCNc2nc3c(-c4cccc(F)c4)nnn3c3ccccc23)cc1` the Potency was inconclusive [activator, single point].
In the case of `CCOC(=O)CC(C)(C)/C(C)=N/Nc1ccc([N+](=O)[O-])cc1[N+](=O)[O-]`, the “activity change, positive = activation” value is reported as inactive: 5.49%.
For `N#CCCN(C(=O)CSc1ccc2c(c1)OCCO2)c1ccccc1`, the “activity change, positive = activation” value was inactive: -2.58%.
For `COc1ccccc1N1CCN(C(=O)c2cc3n(n2)C(C(F)(F)F)CC(c2ccco2)N3)CC1` (stereo not given), the “activity change, positive = activation” value was inactive: -24.5%.
For `Cc1cccc(CS(=O)(=O)Cc2ccc(C(=O)NCCN3CCCCC3C)o2)c1` (stereo not given), the “activity change, positive = activation” value was inactive: -4.39%.
In the case of `COc1ccc(/C(C)=N/N2CCCCC2)c(O)c1`, the “activity change, positive = activation” value is reported as inactive: 6.71%.
In the case of `N#C/C(=C\c1ccc(N2CCCCC2)o1)C(=O)Nc1cccc(Br)c1`, the Potency is reported as inconclusive [activator, partial curve, poor fit].
In the case of `O=C(CSc1ccccc1)NC1CCCCCC1`, the Potency is reported as inconclusive [activator, partial curve, poor fit].
In the case of `CN(CCCNC(=O)COc1cc(=O)n(C)c2ccccc12)Cc1ccccc1`, the “activity change, positive = activation” value is reported as inactive: -9.47%.
For `Cc1c(C(=O)NC2CCOC2)oc2c(F)cccc12` (stereo not given), the Potency was inconclusive [activator, partial curve, poor fit].
With `O=C(Cc1c(F)cccc1Cl)NCC(=O)OCc1ccccc1` the “activity change, positive = activation” value was inactive: 9.37%.
With `COc1cccc(NC(=O)CN(C)C(=O)c2ccc(N3CCCCC3)c([N+](=O)[O-])c2)c1` the “activity change, positive = activation” value was inactive: 5.93%.
In the case of `COc1ccc(NC(=O)CN2C(=O)CSC(C)C2=O)cc1` (stereo not given), the Potency is reported as inconclusive [activator, single point].
For `O=C1COc2ccc(C(=O)COC(=O)c3ccccc3Cl)cc2N1`, the Potency was inconclusive [activator, partial curve, poor fit].
